Reference: patent publication US20250243260A1 (ALPINE IMMUNE SCIENCES, published 2025)
Numbering of substitutions follows the chain as printed. In names and notes the source's numbering stands.

B1: CD80_207-Fc, variant CD80 IgV-Fc E35D/V68T/T101K (Fc fusion)
chain: VIHVTKEVKEVATLSCGHNVSVEELAQTRIYWQKDKKMVLTMMSGDMNIWPEYKNRTIFDITNNLSITILALRPSDEGTYECVVLKYEKDAFKREHLAEVKLSVKADGSGGGGS[omitted - human IgG4 Fc with S228P (EU numbers)]
notes: variant IgV - GSGGGGS - human IgG4 Fc (S228P)
B2: CD80_208-Fc, variant CD80 IgV-Fc V11Y/E35G/M42G/F59S (Fc fusion)
chain: B1 chain with V11Y, D35G, M42G, F59S, T68V, K101T
notes: as for B1
B3: CD80_209-Fc, variant CD80 IgV-Fc V11Y/T28R/E35G/M47L/F59S (Fc fusion)
chain: B1 chain with V11Y, T28R, D35G, M47L, F59S, T68V, K101T
notes: variant IgV - GSGGGGS - human IgG4 Fc (S228P); also called H5890
B4: CD80_210-Fc, variant CD80 IgV-Fc E7N/E35D/F59S (Fc fusion)
chain: B1 chain with E7N, F59S, T68V, K101T
notes: as for B1
B5: CD80_211-Fc, variant CD80 IgV-Fc V11Y/T28R/E35G/M47L/A71G (Fc fusion)
chain: B1 chain with V11Y, T28R, D35G, M47L, T68V, A71G, K101T
notes: as for B1
B6: CD80_212-Fc, variant CD80 IgV-Fc K9R/E10A/E35G/V68T/T101K (Fc fusion)
chain: B1 chain with K9R, E10A, D35G
notes: as for B1
B7: CD80_213-Fc, variant CD80 IgV-Fc V11Y/V68T (Fc fusion)
chain: B1 chain with V11Y, D35E, K101T
notes: as for B1
B8: CD80_214-Fc, variant CD80 IgV-Fc E10G/E35G/D46E/M47V/V68M/T101K (Fc fusion)
chain: B1 chain with E10G, D35G, D46E, M47V, T68M
notes: as for B1
B9: CD80_215-Fc, variant CD80 IgV-Fc K9R/E10A/E35G/V68L/L85E (Fc fusion)
chain: B1 chain with K9R, E10A, D35G, T68L, L85E, K101T
notes: as for B1
B10: CD80_216-Fc, variant CD80 IgV-Fc V11W/T28Y/D46V/R73E/F92L (Fc fusion)
chain: B1 chain with V11W, T28Y, D35E, D46V, T68V, R73E, F92L, K101T
notes: as for B1
B11: CD80_217-Fc, variant CD80 IgV-Fc K9N/E10G/Y87K/T101Q (Fc fusion)
chain: B1 chain with K9N, E10G, D35E, T68V, Y87K, K101Q
notes: as for B1
B12: CD80_218-Fc, variant CD80 IgV-Fc V11W/T28Y/D46V/V68T/R73T/Y87N (Fc fusion)
chain: B1 chain with V11W, T28Y, D35E, D46V, R73T, Y87N, K101T
notes: as for B1
B13: CD80_219-Fc, variant CD80 IgV-Fc E10S/V11Y/M42R/A71V (Fc fusion)
chain: B1 chain with E10S, V11Y, D35E, M42R, T68V, A71V, K101T
notes: as for B1
B14: CD80_220-Fc, variant CD80 IgV-Fc H18F/T28V/M47L/V68S (Fc fusion)
chain: B1 chain with H18F, T28V, D35E, M47L, T68S, K101T
notes: as for B1
B15: CD80_221-Fc, variant CD80 IgV-Fc E10G/A26S/T28Y (Fc fusion)
chain: B1 chain with E10G, A26S, T28Y, D35E, T68V, K101T
notes: as for B1
B16: CD80_222-Fc, variant CD80 IgV-Fc E35D/D46Q/L85E (Fc fusion)
chain: B1 chain with D46Q, T68V, L85E, K101T
notes: as for B1
B17: CD80_224-Fc, variant CD80 IgV-Fc K9N/V11W/M47L/V68T/R73T/Y87N (Fc fusion)
chain: B1 chain with K9N, V11W, D35E, M47L, R73T, Y87N, K101T
notes: as for B1
B18: CD80_225-Fc, variant CD80 IgV-Fc V11Y/M47L/V68T (Fc fusion)
chain: B1 chain with V11Y, D35E, M47L, K101T
notes: as for B1
B19: CD80_226-Fc, variant CD80 IgV-Fc K9R/A26T/T28Y/E35A/M47L/A71G (Fc fusion)
chain: B1 chain with K9R, A26T, T28Y, D35A, M47L, T68V, A71G, K101T
notes: as for B1
B20: CD80_228-Fc, variant CD80 IgV-Fc E7Q/V11Y/R29H/M47L/V68T (Fc fusion)
chain: B1 chain with E7Q, V11Y, R29H, D35E, M47L, K101T
notes: as for B1
B21: CD80_229-Fc, variant CD80 IgV-Fc V11Y/M47V/A71G/L85E (Fc fusion)
chain: B1 chain with V11Y, D35E, M47V, T68V, A71G, L85E, K101T
notes: as for B1
B22: CD80_230-Fc, variant CD80 IgV-Fc E10G/Q27F/D46N/A71G/D90G (Fc fusion)
chain: B1 chain with E10G, Q27F, D35E, D46N, T68V, A71G, D90G, K101T
notes: as for B1
B23: CD80_231-Fc, consensus variant CD80 IgV-Fc V11W/T28Y/M47L (Fc fusion)
chain: B1 chain with V11W, T28Y, D35E, M47L, T68V, K101T
notes: as for B1

These binders were tested against T1, human CD28 (endogenously expressed on primary human T cells) (human, UniProt P10747 19-220) (assay: flow cytometry, primary human T cells).
T1 construct: whole, on cells
Description: Binding affinity to CD28 was determined using primary human T cells which endogenously express CD28. Binding to PD-L1 was determined using SCC152 cells transduced with human PD-L1. Binding to CTLA-4 was measured using Chinese hamster ovary (CHO) cells stably transduced to express human CTLA-4.
For staining and analysis by flow cytometry, 75,000 human T cells, SCC152/PD-L1 cells, or CHO/CTLA-4 cells were plated in 96-well round-bottom plates. Cells were spun down and resuspended in staining buffer (PBS (phosphate buffered saline), 1% BSA (bovine serum albumin), 1 mM EDTA, and 0.1% sodium azide) for 20 minutes to block non-specific binding. Afterwards, cells were centrifuged, stain buffer aspirated, and then resuspended in 50 μL of a 1:5 serial dilution of each CD80-Fc candidate variant starting at 100 nM ending at 0.8 nM. Primary staining was performed on ice for 60 minutes, before washing cells in […] staining buffer three times. PE-conjugated anti-human Fc (Jackson ImmunoResearch, USA) was diluted 1:250 in 50 μL staining buffer and added to cells and incubated another 30 minutes at 4° C. Cells were washed two times in 150 μL stain buffer and then fixed in 2% formaldehyde/PBS for 5 minutes at room temperature. Samples were analyzed CytoFLEX LX flow cytometer (Beckman Coulter, USA). Median Fluorescence Intensity (MFI) was calculated for each cell type using the CytExpert software from Beckman Coulter.

Binder | MFI (anti-human Fc) at 0.8 nM | MFI (anti-human Fc) at 4 nM | MFI (anti-human Fc) at 20 nM | MFI (anti-human Fc) at 100 nM | fold change of MFI vs WT CD80 at 20 nM
B1 | 352 MFI | 661 MFI | 1100 MFI | 1430 MFI | 6.1 fold
B2 | 235 MFI | 283 MFI | 387 MFI | 708 MFI | 2.1 fold
B3 | 188 MFI | 193 MFI | 231 MFI | 357 MFI | 1.3 fold
B4 | 182 MFI | 184 MFI | 203 MFI | 258 MFI | 1.1 fold
B5 | 188 MFI | 229 MFI | 309 MFI | 430 MFI | 1.7 fold
B6 | 244 MFI | 380 MFI | 639 MFI | 799 MFI | 3.5 fold
B7 | 219 MFI | 381 MFI | 630 MFI | 851 MFI | 3.5 fold
B8 | 375 MFI | 480 MFI | 722 MFI | 999 MFI | 4 fold
B9 | 212 MFI | 249 MFI | 413 MFI | 719 MFI | 2.3 fold
B10 | 247 MFI | 355 MFI | 771 MFI | 1580 MFI | 4.3 fold
B11 | 1040 MFI | 2680 MFI | 4550 MFI | 4860 MFI | 25.3 fold
B12 | 384 MFI | 919 MFI | 2240 MFI | 3460 MFI | 12.4 fold
B13 | 280 MFI | 578 MFI | 1750 MFI | 3190 MFI | 9.7 fold
B14 | 687 MFI | 1830 MFI | 2920 MFI | 3440 MFI | 16.2 fold
B15 | 285 MFI | 544 MFI | 1020 MFI | 1330 MFI | 5.6 fold
B16 | 189 MFI | 213 MFI | 336 MFI | 636 MFI | 1.9 fold
B17 | 610 MFI | 1650 MFI | 2680 MFI | 3360 MFI | 14.9 fold
B18 | 236 MFI | 422 MFI | 807 MFI | 1280 MFI | 4.5 fold
B19 | 207 MFI | 284 MFI | 411 MFI | 628 MFI | 2.3 fold
B20 | 195 MFI | 199 MFI | 203 MFI | 227 MFI | 1.1 fold
B21 | 198 MFI | 196 MFI | 203 MFI | 218 MFI | 1.1 fold
B22 | 458 MFI | 991 MFI | 1680 MFI | 2200 MFI | 9.3 fold
B23 | 232 MFI | 397 MFI | 978 MFI | 2760 MFI | 5.4 fold
